Assay results: the supplement of paper PMC9135407
“And” between values parts separate entries of the source, which are not always exact repeats. Equal entries are not always repeated. Structures can show the parent of a compound that is named as a salt. Screen size: about 5,800 compounds; about 620 (11%) showed activity.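 The calls were made as follows: active = score above a cut-off or among the top three wells of a plate; in these data no inactive exceeds 0.85.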 The entries are a selection whose mix differs from that of the whole data set.

Tested on: primary human hepatic stellate cells (donor 1)
Assay: scaled lipid accumulation score (0 = DMSO-like, 1 = nortriptyline-like); higher = stronger HSC inactivation (lipid re-accumulation), active = hit call of the paper
Settings: 48 h
[1] = library stock concentration: 10 mM
[2] = library stock concentration: 3.33 mM
[3] = library stock concentration: 1 mM
[4] = library stock concentration: 2 mM
[5] = library stock concentration: 80 uM
[6] = library stock concentration: 400 uM

## CC(=O)O[C@@]12CO[C@@H]1C[C@H](O)[C@@]1(C)C(=O)[C@H](O)C3=C(C)[C@@H](OC(=O)[C@H](O)[C@@H](NC(=O)OC(C)(C)C)c4ccccc4)C[C@@](O)([C@@H](OC(=O)c4ccccc4)[C@H]21)C3(C)C
[1]
  scaled lipid accumulation score: inactive: ≤ 0

## CC(=O)O[C@@]12CO[C@@H]1C[C@H](O)[C@@]1(C)C(=O)[C@H](O)C3=C(C)[C@@H](OC(=O)[C@H](O)[C@@H](NC(=O)OC(C)(C)C)c4ccccc4)C[C@@](O)([C@@H](OC(=O)c4ccccc4)[C@H]21)C3(C)C [Docetaxel]
[2]
  scaled lipid accumulation score: inactive: ≤ 0
[1]
  scaled lipid accumulation score: inactive: ≤ 0

## CC(C(O)c1ccc(O)cc1)N1CCC(Cc2ccccc2)CC1.CC(C(O)c1ccc(O)cc1)N1CCC(Cc2ccccc2)CC1.O=C(O)C(O)C(O)C(=O)O (stereo not given) [Ifenprodil tartrate]
[1]
  scaled lipid accumulation score: active: 1.11

## CCN(CC)CCCCCCCCOC(=O)c1cc(OC)c(OC)c(OC)c1.Cl [TMB-8 hydrochloride]
[1]
  scaled lipid accumulation score: active: 1.03

## CCN1CCC(n2cc(CNc3cc(Cl)c4ncc(C#N)c(Nc5ccc(F)c(Cl)c5)c4c3)nn2)CC1
[1]
  scaled lipid accumulation score: active: 1.15

## O=C(c1ccc(Nc2nccc(-c3cc4ccccc4s3)n2)cc1)N1CCC(N2CCCC2)CC1
[1]
  scaled lipid accumulation score: inactive: 0.18

## O=C(c1ccc(Nc2nccc(-c3cc4ccccc4s3)n2)cc1)N1CCC(N2CCCC2)CC1 [IKK-16 (IKK Inhibitor VII)]
[1]
  scaled lipid accumulation score: inactive: 0.246

## Clc1ccc(CSC(Cn2ccnc2)c2ccc(Cl)cc2Cl)cc1 (stereo not given) [Sulconazole Nitrate]
[2]
  scaled lipid accumulation score: inactive: ≤ 0
[1]
  scaled lipid accumulation score: inactive: 0.492

## Clc1ccc(CSC(Cn2ccnc2)c2ccc(Cl)cc2Cl)cc1 (stereo not given) [Sulconazole nitrate]
  scaled lipid accumulation score: inactive: 0.081
[1]
  scaled lipid accumulation score: inactive: 0.297

## Nc1ncnc2c1ncn2[C@@H]1O[C@H](CO)[C@@H](O)[C@H]1O [Adenosine]
[2]
  scaled lipid accumulation score: inactive: 0.024
Library stock concentration: 7.5 mM
  scaled lipid accumulation score: inactive: 0.019
[1]
  scaled lipid accumulation score: inactive: ≤ 0 and inactive: 0.188

## C[n+]1cc2c3c(ccc2c2ccc4cc5c(cc4c21)OCO5)OCO3 [Sanguinarine sulfate]
Library stock concentration: 4.7 mM
  scaled lipid accumulation score: inactive: 0.693
[1]
  scaled lipid accumulation score: inactive: 0.287

## C[n+]1cc2c3c(ccc2c2ccc4cc5c(cc4c21)OCO5)OCO3 [Sanguinarine chloride]
[1]
  scaled lipid accumulation score: inactive: 0.196

## Cc1cc(C)c(Nc2ccnc(Nc3ccc(C#N)cc3)n2)c(C)c1 [Dapivirine (TMC120)]
[2]
  scaled lipid accumulation score: inactive: 0.243

## Cc1cc(/C=C2/SC(=S)NC2=O)c(C)n1-c1cccnc1 [Optovin]
[2]
  scaled lipid accumulation score: inactive: ≤ -0.009
[1]
  scaled lipid accumulation score: inactive: ≤ 0

## O=C(CCC/C=C\C[C@@H]1[C@@H](/C=C/[C@@H](O)CCc2ccccc2)[C@H](O)C[C@@H]1O)NC(CO)CO [17-phenyl trinor Prostaglandin F2.alpha. serinol amide]
[3]
  scaled lipid accumulation score: inactive: 0.062

## N[C@@H](Cc1cc(I)c(Oc2cc(I)c(O)c(I)c2)c(I)c1)C(=O)O
[1]
  scaled lipid accumulation score: inactive: ≤ 0

## N[C@@H](Cc1cc(I)c(Oc2cc(I)c(O)c(I)c2)c(I)c1)C(=O)O [Levothyroxine]
Library stock concentration: 2.6 mM
  scaled lipid accumulation score: inactive: ≤ 0

## N[C@@H](Cc1cc(I)c(Oc2cc(I)c(O)c(I)c2)c(I)c1)C(=O)O [L-Thyroxine]
[2]
  scaled lipid accumulation score: inactive: ≤ 0
[1]
  scaled lipid accumulation score: inactive: ≤ 0

## CC1(C)CCC(C)(C)c2cc(NC(=O)c3ccc(C(=O)O)cc3)ccc21 [Tamibarotene]
[2]
  scaled lipid accumulation score: inactive: ≤ 0
[1]
  scaled lipid accumulation score: inactive: ≤ -0.001

## O=C(O)C(O)Cc1ccc(O)c(O)c1 (stereo not given) [Sodium Danshensu]
[2]
  scaled lipid accumulation score: inactive: ≤ 0
[1]
  scaled lipid accumulation score: inactive: ≤ 0

## Cc1ccc(CC2(O)CCN(CCOc3ccc(O)cc3)CC2)cc1
[1]
  scaled lipid accumulation score: inactive: 0.414

## Cc1ccc(NC(=O)Nc2cc(C(F)(F)F)ccc2F)cc1Nc1ccc2c(c1)NC(=O)C2=Cc1ccc[nH]1
[4]
  scaled lipid accumulation score: active: 1.14
[1]
  scaled lipid accumulation score: active: 1.61

## N=C(N)NC(=O)Cc1c(Cl)cccc1Cl [Guanfacine HCl]
Library stock concentration: 7.1 mM
  scaled lipid accumulation score: inactive: ≤ -0.006

## N=C(N)NC(=O)Cc1c(Cl)cccc1Cl [Guanfacine hydrochloride]
  scaled lipid accumulation score: inactive: ≤ 0
[1]
  scaled lipid accumulation score: inactive: 0.148 and inactive: 0.048

## CCCCCCC=CCCCCCCCCCCOC(C)=O [11-cis Vaccenyl Acetate]
[3]
  scaled lipid accumulation score: inactive: ≤ 0

## CNCc1ccc(C)c(NC(=O)c2ccc(Nc3nc(-c4ccccc4)c4ccccc4n3)cc2)c1
[2]
  scaled lipid accumulation score: active: 1.14

## COc1cc(Nc2ncc(F)c(Nc3ccc4c(n3)N(COP(=O)(O)O)C(=O)C(C)(C)O4)n2)cc(OC)c1OC [Fostamatinib (R788)]
[1]
  scaled lipid accumulation score: active: 1.01

## COc1cc(OC)cc(OC)c1 [1,3,5-trimethoxybenzene]
[1]
  scaled lipid accumulation score: inactive: ≤ 0

## Nc1cccc2c1C(=O)N(C1CCC(=O)NC1=O)C2=O (stereo not given) [Pomalidomide]
[2]
  scaled lipid accumulation score: inactive: ≤ 0
[1]
  scaled lipid accumulation score: inactive: ≤ 0

## COc1cc(O)c(C(=O)c2ccccc2)cc1S(=O)(=O)O
[1]
  scaled lipid accumulation score: inactive: ≤ 0

## O=c1cnn([C@@H]2O[C@H](CO)[C@@H](O)[C@H]2O)c(=O)[nH]1
[1]
  scaled lipid accumulation score: inactive: ≤ 0

## COC(=O)C1=C(C)NC(C)=C(C(=O)NCCCN2CCC(c3ccccc3)(c3ccccc3)CC2)C1c1ccc([N+](=O)[O-])cc1 (stereo not given)
[1]
  scaled lipid accumulation score: inactive: 0.548

## Cc1ccc(C(=O)Nc2cccc(C(F)(F)F)c2)cc1Nc1nc(-c2cccnc2)nc2c1cnn2C
[2]
  scaled lipid accumulation score: active: 0.942
[1]
  scaled lipid accumulation score: active: 0.959

## Oc1ccc(OC2CCCCO2)cc1 (stereo not given) [Deoxyarbutin]
[2]
  scaled lipid accumulation score: inactive: ≤ 0
[1]
  scaled lipid accumulation score: inactive: ≤ -0.001

## C=C1C[C@@]23CC[C@H]4[C@@](C)(CCC[C@@]4(C)C(=O)O)[C@@H]2CC[C@]1(O)C3 [Steviol]
[1]
  scaled lipid accumulation score: inactive: ≤ 0

## O=C(O)Cc1nn(Cc2ccc(Br)cc2F)c(=O)c2ccccc12 [Statil]
[1]
  scaled lipid accumulation score: inactive: ≤ 0

## N[C@@H](Cc1c[nH]c2ccc(O)cc12)C(=O)O [5-Hydroxy-L-tryptophan]
[1]
  scaled lipid accumulation score: inactive: ≤ -0.07

## N[C@@H](Cc1c[nH]c2ccc(O)cc12)C(=O)O [5-hydroxytryptophan (5-HTP)]
[2]
  scaled lipid accumulation score: inactive: ≤ 0
[1]
  scaled lipid accumulation score: inactive: ≤ 0

## CC(C)n1nc(-c2ccc3oc(N)nc3c2)c2c(N)ncnc21
[5]
  scaled lipid accumulation score: inactive: ≤ -0.016
[6]
  scaled lipid accumulation score: inactive: ≤ -0.015
[4]
  scaled lipid accumulation score: inactive: ≤ -0.016
[2]
  scaled lipid accumulation score: inactive: 0.032
[1]
  scaled lipid accumulation score: inactive: ≤ 0 and inactive: ≤ -0.016

## N=C(N)Nc1ccc(C(=O)Oc2ccc3cc(C(=N)N)ccc3c2)cc1 [Nafamostat mesylate]
Library stock concentration: 11.3 mM
  scaled lipid accumulation score: inactive: 0.081

## N=C(N)Nc1ccc(C(=O)Oc2ccc3cc(C(=N)N)ccc3c2)cc1 [Nafamostat Mesylate]
[2]
  scaled lipid accumulation score: inactive: 0.014
[1]
  scaled lipid accumulation score: inactive: ≤ 0

## Cc1[nH]c2ccccc2c1C1=C(NCCc2ccc(F)cc2)C(=O)N(C)C1=O
[2]
  scaled lipid accumulation score: inactive: ≤ -0.009
[1]
  scaled lipid accumulation score: inactive: 0.098

## O=C1C(SCCO)=C(SCCO)C(=O)c2ccccc21
[1]
  scaled lipid accumulation score: active: 1.2

## CC(Cc1ccccc1)(NC(=O)CN)c1ccccc1 (racemic)
[1]
  scaled lipid accumulation score: active: 0.922

## NC(N)=Nc1ccc(Cl)cc1 [4-Chlorophenylguanidine hydrochloride]
[1]
  scaled lipid accumulation score: inactive: 0.022

## CCCCCCCCCCCCCCCC(=O)OC[C@@H](NC(=O)C(Cl)Cl)[C@H](O)c1ccc([N+](=O)[O-])cc1 [Chloramphenicol palmitate]
Library stock concentration: 3.6 mM
  scaled lipid accumulation score: inactive: 0.026

## [O-]/[N+](=N\O[C@@H]1O[C@H](CO)[C@H](O)[C@H](O)[C@H]1O)N1CCCC1 [.beta.-Gal-NONOate]
[3]
  scaled lipid accumulation score: inactive: ≤ 0

## Oc1ccc2ccccc2c1SSc1c(O)ccc2ccccc12
[2]
  scaled lipid accumulation score: inactive: ≤ -0.009
[1]
  scaled lipid accumulation score: inactive: 0.665

## COc1cc2nc(N(C)CCCNC(=O)C3CCCO3)nc(N)c2cc1OC (stereo not given)
[1]
  scaled lipid accumulation score: inactive: ≤ 0

## COc1cc2nc(N(C)CCCNC(=O)C3CCCO3)nc(N)c2cc1OC (stereo not given) [Alfluzosin]
Library stock concentration: 5.1 mM
  scaled lipid accumulation score: inactive: ≤ 0

## COc1cc2nc(N(C)CCCNC(=O)C3CCCO3)nc(N)c2cc1OC (stereo not given) [Alfluzocin]
[1]
  scaled lipid accumulation score: inactive: 0.025

## COc1cc2nc(N(C)CCCNC(=O)C3CCCO3)nc(N)c2cc1OC (stereo not given) [Alfuzosin HCl]
[2]
  scaled lipid accumulation score: inactive: ≤ 0
[1]
  scaled lipid accumulation score: inactive: ≤ 0

## COc1cc2nc(N(C)CCCNC(=O)C3CCCO3)nc(N)c2cc1OC (stereo not given) [Alfuzosin hydrochloride]
  scaled lipid accumulation score: inactive: ≤ 0
[1]
  scaled lipid accumulation score: inactive: 0.274

## O=C(Nc1cccc2cccnc12)c1ccc(N2C(=O)C3C4C=CC(C4)C3C2=O)cc1 (stereo not drawn) [IWR-1-endo]
[2]
  scaled lipid accumulation score: inactive: ≤ 0
[1]
  scaled lipid accumulation score: inactive: ≤ -0.001

## O=C(O)/C=C/c1ccc(O)c(O)c1 [Caffeic Acid]
[3]
  scaled lipid accumulation score: inactive: ≤ 0
[2]
  scaled lipid accumulation score: inactive: 0.002
[1]
  scaled lipid accumulation score: inactive: ≤ 0 and inactive: 0.016

## O=C(O)/C=C/c1ccc(O)c(O)c1 [Caffeic acid]
  scaled lipid accumulation score: inactive: ≤ 0

## CCCCc1nc2cc(/C=C/C(=O)NO)ccc2n1CCN(CC)CC [Pracinostat (SB939)]
[2]
  scaled lipid accumulation score: inactive: 0.45
[1]
  scaled lipid accumulation score: inactive: 0.23

## CCCCc1nc2cc(/C=C/C(=O)NO)ccc2n1CCN(CC)CC
[5]
  scaled lipid accumulation score: inactive: ≤ 0
[6]
  scaled lipid accumulation score: inactive: ≤ 0
[4]
  scaled lipid accumulation score: inactive: 0.416
[1]
  scaled lipid accumulation score: inactive: 0.388

## CCCCCC1OC(O)CC1SC[C@H](NC(C)=O)C(=O)O (stereo not given in full) [4-hydroxy Nonenal Mercapturic Acid]
[3]
  scaled lipid accumulation score: inactive: ≤ 0

## O=C(CCc1ccc(O)c(O)c1)N[C@@H](CC(=O)OCc1ccccc1)C(=O)OCc1ccccc1
[3]
  scaled lipid accumulation score: inactive: ≤ 0

## C#C[C@]1(OC(C)=O)CC[C@H]2[C@@H]3CCC4=CC(=NO)CC[C@@H]4[C@H]3CC[C@@]21CC (mixture of isomers) [Norgestimate]
Library stock concentration: 5.4 mM
  scaled lipid accumulation score: inactive: ≤ 0

## COc1ccc2cc([C@H](C)CO)ccc2c1 [Naproxol]
Library stock concentration: 9.2 mM
  scaled lipid accumulation score: inactive: ≤ 0
[1]
  scaled lipid accumulation score: inactive: 0.031
